Values joined by “and” are separate entries in the source; they are usually repeats but may differ in a detail not shown here. Identical values can stand only once. Hit rate of the full screen: of about 420,000 compounds, about 64,000 (15%) were called active. The inconclusive results got no clear call from the source; some entries with a clear call stand among them for comparison. Calls come from the whole dose curve; as a rule, active = well fitted inhibition curve with a large enough effect; inconclusive = small, poorly fitted or top-dose-only effect; inactive = flat fitted curve, though single readings scatter. A potency beside an inconclusive call is a rough fit, not a confirmed value.
Experiment: qHTS for Inhibitors of human tyrosyl-DNA phosphodiesterase 1 (TDP1): qHTS in cells in absence of CPT; note: nearly all actives have a fitted effect of over 55% in size
Conditions: DT40 Tdp1-/- hTDP1 cells, no CPT, ATP luminescence, 48 h; activity change, negative = growth inhibition: at 46.2 µM (top of the series) unless noted
Method in brief: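 Camptothecin absent (DMSO only). Human TDP1-complemented DT40 knockout cells, 400 cells/well, 37 °C for minimum 48 hr; ATP measured via CellTiter-Glo, 30 min dark incubation, luminescence.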
% is set by controls: 0 for no effect and ±100 for the full control effect; potency is the fitted concentration of half-maximal effect; tags give direction and shape of the fitted curve.

| SMILES | Potency | activity change, negative = growth inhibition |
| --- | --- | --- |
| CN(CC(=O)Nc1ccc(Cl)c(C(F)(F)F)c1)C(=O)C1CC(=O)N(C2CCCC2)C1 (stereo not drawn) | inconclusive: 18.4 µM [inhibitor, partial curve] | – |
| Cc1c(C(=O)N/N=C/c2cccs2)nc2ccccn12 | inconclusive: 29.1 µM [inhibitor, single point] | – |
| O=C(c1ccc2c(c1)N(Cc1cccc(Cl)c1)C(=O)c1ccccc1S2=O)N1CCN(c2cccc(C(F)(F)F)c2)CC1 (stereo not drawn) | active: 10.3 µM | – |
| O=C(CSc1nc2cc(S(=O)(=O)N3CCOCC3)ccc2o1)Nc1c(F)cccc1F | active: 20.6 µM | – |
| c1ccc2c(c1)nc(NCC1CCCO1)c1nnnn12 (stereo not drawn) | inconclusive: 18.4 µM [inhibitor, single point] | – |
| O=c1[nH]c2ccccc2c2cn(-c3ccccc3)nc12 | inconclusive: 29.1 µM [inhibitor, single point] | – |
| COc1ccc(CCNS(=O)(=O)c2cnc(Cl)c(Br)c2)cc1OC | – | inactive: -11.3% |
| CCOCCCN(C)C1CCN(S(=O)(=O)c2csc(C(N)=O)c2)CC1 | – | inactive: -6.72% |
| O=c1cc(N2CCCCC2)c(-c2ccccc2)nn1Cc1c(Cl)cccc1Cl | active: 16.4 µM | – |
| Cc1cccc(Cn2nnc3c(=O)[nH]c(C4CCCN(C(=O)c5ccccc5Cl)C4)nc32)c1 (stereo not drawn) | inconclusive: 29.1 µM [inhibitor, single point] | – |
| COc1ccc(/C=C/C(=O)Nc2cc(C)nn2-c2nc3ccccc3[nH]2)cc1 | active: 18.4 µM | – |
| C[C@H](CO)N1C[C@H](C)[C@@H](CN(C)C(=O)Nc2ccccc2)Oc2ccc(NC(=O)Cc3ccccc3)cc2C1=O | – | inactive: -9.16% |
| CC1(C)N=C(N)N=C(N)N1c1cc(Cl)ccc1Cl | inconclusive: 5.17 µM [inhibitor, full curve] | – |
| c1ccc(N2CCN(c3nc(-c4ccccn4)nc4ccccc34)CC2)cc1 | active: 4.61 µM | – |
| COc1ccc([N+](=O)[O-])cc1NC(=S)Nc1ccccc1 | – | inactive: 0.677% |
| Cc1c(C(=O)NN2CCN(C)CC2)cccc1[N+](=O)[O-] | – | inactive: 6.35% |
| CCS(=O)(=O)N1CCN(c2ccc([N+](=O)[O-])c(NCC3CCCO3)c2)CC1 (stereo not drawn) | inconclusive: 29.1 µM [inhibitor, single point] | – |
| CCCCn1c(N)c(N(CC(C)C)C(=O)C2CCCO2)c(=O)[nH]c1=O (stereo not drawn) | – | inactive: 3.41% |
| CN(C)C(CNC(=O)c1ccccc1OCc1ccc(Cl)cc1)c1ccco1 (stereo not drawn) | inconclusive: 18.4 µM [inhibitor, single point] | – |
| Cn1c(=O)c2c(ncn2Cc2ccc(Cl)cc2)n(C)c1=O | active: 16.4 µM | – |
| CCCCn1c(=N)n(CCOc2ccc(C)cc2)c2ccccc21 | active: 5.8 µM | – |
| O=C(CSc1nc2ccccc2c(=O)[nH]1)N1CCCCC1 | – | inactive: 0.55% |
| Cc1ccc(NC(=S)NC(=O)/C=C/c2ccco2)c(O)c1 | inconclusive: 20.6 µM [inhibitor, single point] | – |
| NC(c1ccccc1)c1csc(NC(=O)Nc2ccc(OC(F)(F)F)cc2)n1 (stereo not drawn) | – | inactive: -107% |

| SMILES | Potency | activity change, negative = growth inhibition |
| --- | --- | --- |
| Cc1ccc(S(=O)(=O)N(C)CC(=O)Nc2nc3ccccc3s2)cc1 | active: 20.6 µM | – |
| CCOC(=O)c1sc(=S)n(Cc2ccccc2)c1C | – | inactive: -20.1% |
| COc1cccc(-c2cc(NC=O)c3ncc(-c4ccc(C(C)=O)cc4)n3c2)c1 | active: 2.31 µM | – |
| Cc1ccc(-n2ncc3c(=O)n(Cc4cccnc4)cnc32)cc1 | inconclusive: 18.4 µM [inhibitor, partial curve] | – |
| Cc1ccc2cccc(OCC(=O)Nc3ccc(N4CCOCC4)cc3)c2n1 | inconclusive: 3.26 µM [inhibitor, partial curve] | – |
| c1cc2c(c(NCc3ccncc3)c1)CCCC2 | active: 11.6 µM | – |
| N#Cc1cccc(NC(=O)CCC2CCCC2)c1 | – | inactive: -19.6% |
| CCc1ccc(NC(=O)c2ccc3nc(N)sc3c2)cc1 | inconclusive: 16.4 µM [inhibitor, single point] | – |
| Cc1ccc(CNC(=O)Cn2c(=O)oc3ccccc32)o1 | inconclusive: 15.8 µM [inhibitor, single point] | – |
| C#CCOCCOCCOCCNc1nc(N2CCN(C(=O)CCCCCCCCCCNC(=O)[C@H](CCCCN)n3cc(C)nn3)CC2)nc(N2CCN(C(=O)CCCCCCCCCCNC(=O)[C@@H]([C@H](C)O)n3cc(C)nn3)CC2)n1 | inconclusive: 18.4 µM [inhibitor, single point] | – |
| COc1ccc(N2CCN(C(=O)CNS(=O)(=O)c3ccc(Br)s3)CC2)cc1 | inconclusive: 18.4 µM [inhibitor, single point] and inconclusive: 20.6 µM [inhibitor, single point] | – |
| COCCCN=C1NN=C(c2cc(C)n(Cc3ccco3)c2C)CS1 | active: 0.0291 µM | – |
| N/C(=N\OC(=O)COc1ccc(Br)cc1Cl)c1cccnc1 | – | inactive: -21.4% |
| Cc1ccccc1NC(=O)c1ccc2ccccc2c1 | – | inactive: -9.6% |
| Cc1ccccc1Nc1nc(N)nc(COC(=O)[C@@H](NC(=O)c2ccco2)C(C)C)n1 | inconclusive: 29.1 µM [inhibitor, single point] | – |
| CCCC12CN3CC(CCC)(CN(C1)C3C(O)C(O)C(O)CO)C2=O (stereo not drawn) | – | inactive: -6.03% |
| N#Cc1nc(/C=C/c2ccc(F)cc2)oc1NCc1ccc(F)cc1 | – | inactive: -24.3% |
| Cc1c(NC(=S)N2CCN(c3cccc(Cl)c3)CC2)c(=O)n(-c2ccccc2)n1C | inconclusive: 13 µM [inhibitor, partial curve] | – |
| O=C(NCCc1ccccc1)C1CCC(CNS(=O)(=O)c2cccs2)CC1 (stereo not drawn) | inconclusive: 18.4 µM [inhibitor, single point] | – |
| Cc1ccc(-n2ncc(C(=O)Nc3cc(Cl)ccc3Cl)c2C2CCNCC2)cc1 | active: 23.1 µM | – |
| O=C(CN1CCC(C(=O)O)CC1)Nc1ccccc1Oc1ccccc1 | – | inactive: -2.19% |
| CCCn1c2ccccc2c2cnn(CC(=O)NCCN(C)C)c(=O)c21 | – | inactive: -0.397% |
| Cc1cc(C(=O)NCC2CCC3(CCN(Cc4cccc(F)c4F)CC3)O2)n(C)n1 (stereo not drawn) | active: 11.6 µM | – |
| COc1ccc(CCN(C(=S)Nc2ccccc2)C2CC(=O)N(c3ccccc3)C2=O)cc1 (stereo not drawn) | inconclusive: 20.6 µM [inhibitor, single point] | – |
